What all share (assay): co-IP; lysates (1.0 mg/ml) of transfected HEK293 cells on Pierce anti-HA magnetic beads, 2 h, 4°C; 20 mM HEPES pH 7.4, 130 mM NaCl, 2 mM MgCl2, 0.1% saponin; 60 uM GppNHp with Rab2(wt) and Rab2[Q65L] but not Rab2[S20N]; eluted with 100 mM NaOH or HA peptide; Western blot; in Fig. S2 E cells treated with 2 uM MLi-2 for 2 h or co-transfected with LRRK2^G2019S
On the technique in general: In western blotting, separated proteins are transferred to a membrane and probed.

Amino acid sequences for entries named in this document (tags omitted). A change or cut given only in a name is not applied to a line headed by its entry.
UniProt O18333: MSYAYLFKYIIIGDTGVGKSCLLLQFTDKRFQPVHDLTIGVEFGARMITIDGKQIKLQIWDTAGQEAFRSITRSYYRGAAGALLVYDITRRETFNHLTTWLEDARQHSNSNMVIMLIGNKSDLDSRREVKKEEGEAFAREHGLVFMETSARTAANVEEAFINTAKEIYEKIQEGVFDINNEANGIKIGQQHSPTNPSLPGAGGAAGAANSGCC

The target in test [1] is HA-Rab2^Q65L (Drosophila) (UniProt O18333).
The target in test [2] is WT HA-Rab2 (Drosophila) (UniProt O18333).
Test [3] has as its target T1, HA-Syd-N2 (Syd^1-529) (Drosophila) (UniProt Q9GQF1).
T1 sequence: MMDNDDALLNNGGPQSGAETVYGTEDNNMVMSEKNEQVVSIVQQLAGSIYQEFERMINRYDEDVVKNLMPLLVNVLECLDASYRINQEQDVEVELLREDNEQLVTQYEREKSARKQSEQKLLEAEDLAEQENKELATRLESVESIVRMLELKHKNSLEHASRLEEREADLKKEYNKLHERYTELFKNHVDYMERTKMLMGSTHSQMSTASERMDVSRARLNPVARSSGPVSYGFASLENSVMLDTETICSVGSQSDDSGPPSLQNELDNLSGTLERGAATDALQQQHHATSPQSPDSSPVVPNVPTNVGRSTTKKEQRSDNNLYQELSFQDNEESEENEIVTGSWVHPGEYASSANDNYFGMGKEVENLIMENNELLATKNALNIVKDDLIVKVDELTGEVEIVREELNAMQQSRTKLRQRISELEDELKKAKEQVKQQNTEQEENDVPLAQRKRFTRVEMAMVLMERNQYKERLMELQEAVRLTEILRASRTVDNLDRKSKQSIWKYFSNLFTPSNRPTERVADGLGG

Test [4] deals with T2, HA-Syd-N4 (Syd^1-485) (Drosophila) (UniProt Q9GQF1).
T2 sequence: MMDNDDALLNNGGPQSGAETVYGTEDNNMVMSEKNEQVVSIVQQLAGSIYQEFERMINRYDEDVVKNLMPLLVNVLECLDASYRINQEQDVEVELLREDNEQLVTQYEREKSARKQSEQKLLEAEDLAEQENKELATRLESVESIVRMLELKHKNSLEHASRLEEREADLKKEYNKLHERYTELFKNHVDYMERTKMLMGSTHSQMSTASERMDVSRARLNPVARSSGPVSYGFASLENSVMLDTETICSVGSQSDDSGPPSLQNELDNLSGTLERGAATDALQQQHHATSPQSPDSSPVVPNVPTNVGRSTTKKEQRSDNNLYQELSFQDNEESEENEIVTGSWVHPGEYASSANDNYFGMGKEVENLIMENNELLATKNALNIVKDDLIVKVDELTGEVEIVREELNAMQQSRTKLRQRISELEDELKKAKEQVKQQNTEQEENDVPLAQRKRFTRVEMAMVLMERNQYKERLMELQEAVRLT

The target of test [5] is T3, HA-Syd-N5 (Syd^1-198) (Drosophila) (UniProt Q9GQF1).
T3 sequence: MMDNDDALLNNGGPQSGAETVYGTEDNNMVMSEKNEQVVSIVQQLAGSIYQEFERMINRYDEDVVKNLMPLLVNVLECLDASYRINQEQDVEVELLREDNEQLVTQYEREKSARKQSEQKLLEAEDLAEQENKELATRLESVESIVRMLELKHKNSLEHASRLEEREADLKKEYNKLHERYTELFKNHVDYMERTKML

Results are given in words; binding and its absence hold for the method and conditions named. In cells and extracts the contact can be indirect. Some results given as binding are weak or reduced against the parent protein; the word gives no strength. Where a sequence is shown, tags or fusion partners need not be part of it.

Binding data for four molecules are collected here from article PMC12772503.

B1: myc-Syd-C1 (Syd^530-1226) (domain or fragment, UniProt Q9GQF1 530-1226)
chain: GPMFRHTGGGSPAHSHGSPSRGSGGGDNRLALTSGQPPVHPASAGLANALIMPKDYAEEGSSERISARRREQYRQLRAHVQKEDGRLHAYGWSLPINKASQEANPNRHSGGVPVPVYCNPLAEASPHMKVFCAAGVNLHGGFTKNGQSLIPANSPYAPKSTLKIAEITSPTADQSMEALDRQMARVSLETLEPETQLSSFVWICTSTHAASTVSVVDANQSATVLDAFPICASHLLCIASVQGAMESDYALLEQSEVVKAGEMLQRPGEGTELLGKVEFVRVKPKSDDEQNSNEKQQQEEEEAKEATEKSNEQLPAVSAEEPLGNVEAIKIRQPLPGAPQRLSTDGNQTNNNNNSSSSSNLLFATKSLNPILETKDRDEPAMSSVGPTMWLGAQDGWLYVHSSVGRWHECLHRVLLPDAVLAIVHVEARVVVALANAQLAVFRRQTDGQWDLNSYHLVTLGDRNHSIRCLCVAGERIWAAHRNKIFIVDPVSLNIVHSLDAHPRKESQVRQMAATGAGVWVSIRLDSTLRLYNTHTFEHKQDVDIEPYVSKMLGTGKLGFSFVRITALMVSCNRLWIGTSNGVIISVPLAEVQPKSSSDPHGQMPLCCMANAQLSFHGHRDAVKFFVSVPMLQQPNLNGGLTFTNKRPDMLVMCGGEGYIDFRINDNDMENSIQLEPNQTIENRGDKSYLIVWHVSQ
B1: the binding result in test [1] is listed as “no binding”.

B2: myc-Syd-N2 (Syd^1-529) (domain or fragment, UniProt Q9GQF1 1-529)
chain: T1 sequence
B2: the binding result in test [1] and in test [2] was “binds” throughout.

B3: V5-tagged DLIC (protein, UniProt Q9VZ20 1-493)
chain: MAMNSGTQTNALTSSFTMKKKDAAAEKENLWSAILNEVQTQGSTKLPSNKSVLVLGDNATGKTTLIAKLQGVEDPKKGSGLEYAYIDVKDEYRDDMTRLGVWVLDGDPGHTNLLHYALNETNYAHTLVILTVSMTQPWGWLEQLNHWIKVLGQHIDSLQLDAKEKEAARQRLTTTWQSYCEVGDDLDPGSPVKRTMRNNSIDEDDLLPLTEDALITNLGLDIVVVVTKTDYMTTLEKEYEYRDEHFDFIQQWIRNFCLRHGTSLFYTSVKEDKNCDVLYKYLTHRIYGLPFRTPALVVEKDAVLIPAGWDSLKKISILYENMHGVKAENPYTDIIKSPPTRKAVSNREAEVQTEDEQAFLARQQEILKQGDQVRGESPLRSQGVGSNKSGPRTPGTTGQSSPKKIDPKLTPATPGAEGVLANFFNSLLHKKSGSPGTGGPGGAGNPAGPGRTANGTDAVMTPEKLAVRTDAAAELDRLSRSVKKEIDMSQSEC
Consider B3, for which the binding result in test [3], in test [4] and in test [5] was “binds” throughout.

B4: myc-tagged full-length Syd (protein, UniProt Q9GQF1 1-1227)
chain: MMDNDDALLNNGGPQSGAETVYGTEDNNMVMSEKNEQVVSIVQQLAGSIYQEFERMINRYDEDVVKNLMPLLVNVLECLDASYRINQEQDVEVELLREDNEQLVTQYEREKSARKQSEQKLLEAEDLAEQENKELATRLESVESIVRMLELKHKNSLEHASRLEEREADLKKEYNKLHERYTELFKNHVDYMERTKMLMGSTHSQMSTASERMDVSRARLNPVARSSGPVSYGFASLENSVMLDTETICSVGSQSDDSGPPSLQNELDNLSGTLERGAATDALQQQHHATSPQSPDSSPVVPNVPTNVGRSTTKKEQRSDNNLYQELSFQDNEESEENEIVTGSWVHPGEYASSANDNYFGMGKEVENLIMENNELLATKNALNIVKDDLIVKVDELTGEVEIVREELNAMQQSRTKLRQRISELEDELKKAKEQVKQQNTEQEENDVPLAQRKRFTRVEMAMVLMERNQYKERLMELQEAVRLTEILRASRTVDNLDRKSKQSIWKYFSNLFTPSNRPTERVADGLGGGPMFRHTGGGSPAHSHGSPSRGSGGGDNRLALTSGQPPVHPASAGLANALIMPKDYAEEGSSERISARRREQYRQLRAHVQKEDGRLHAYGWSLPINKASQEANPNRHSGGVPVPVYCNPLAEASPHMKVFCAAGVNLHGGFTKNGQSLIPANSPYAPKSTLKIAEITSPTADQSMEALDRQMARVSLETLEPETQLSSFVWICTSTHAASTVSVVDANQSATVLDAFPICASHLLCIASVQGAMESDYALLEQSEVVKAGEMLQRPGEGTELLGKVEFVRVKPKSDDEQNSNEKQQQEEEEAKEATEKSNEQLPAVSAEEPLGNVEAIKIRQPLPGAPQRLSTDGNQTNNNNNSSSSSNLLFATKSLNPILETKDRDEPAMSSVGPTMWLGAQDGWLYVHSSVGRWHECLHRVLLPDAVLAIVHVEARVVVALANAQLAVFRRQTDGQWDLNSYHLVTLGDRNHSIRCLCVAGERIWAAHRNKIFIVDPVSLNIVHSLDAHPRKESQVRQMAATGAGVWVSIRLDSTLRLYNTHTFEHKQDVDIEPYVSKMLGTGKLGFSFVRITALMVSCNRLWIGTSNGVIISVPLAEVQPKSSSDPHGQMPLCCMANAQLSFHGHRDAVKFFVSVPMLQQPNLNGGLTFTNKRPDMLVMCGGEGYIDFRINDNDMENSIQLEPNQTIENRGDKSYLIVWHVSQR
As for B4, the binding entry in test [1] and in test [2] was “binds” each time.
